Measured values as given in PubChem BioAssay AID2060904 (Molecular Pharmacology Branch, DTP, NCI, 2025).
Certain results were filed several times, with different values. Only these are listed. The source may hold further records. Values given together are repeats (runs, samples, wells, individuals or studies). Brackets with × give the number of equal values in this list. Dates in brackets are months of testing.

Tested on: 349418-098-R-PDC complex spheroid viability
Assay: Anticancer human tumor 349418-098-R-PDC patient-derived lung adenocarcinoma cell line growth inhibition [RAS]
Settings: for viability, T/C: stronger effect = lower value; for IC50: compound alone
Source text: RAS pathway inhibitors in Combinations in Complex Spheroids
A high-throughput screen of multi-cell type tumor spheroids was designed to identify active combinations of RAS pathway inhibitors and targeted small molecules. Complex spheroids include a stromal component modeled by human endothelial cells (HUVEC) and fibroblasts modeled by human mesenchymal stem cells (MSCs). The concentration ranges selected for each drug and investigational agent were based upon clinically achievable concentrations if the clinical Cmax of the agent was known.
Compounds. The drugs and investigational agents: abemaciclib (NSC768073), cobimetinib (NSC768068), divarasib (GDC6063, NSC841802), docetaxel (NSC628503), GDC-1971 (RLY-1971, NSC841576), gemcitabine (NSC613327), inavolisib (NSC800729), ipatasertib (NSC767898), KB-0742 (NSC834161), MRTX-1133 (NSC836407), osimertinib (NSC779217), RMC-4630 (NSC839698), RMC-6236 (NSC851965), RMC-6291 (NSC852671), Ro-3306 (NSC812927), sapanisertib (NSC764658), SN-38 (NSC673596), staurosporine (NSC755774), SY5609 (NSC837396), and tovorafenib (DAY101, NSC766906), were obtained from the National Cancer Institute (NCI) Developmental Therapeutics Program Chemical Repository. The FDA-approved anticancer drug set is available from the NCI Developmental Therapeutics Program. […] The stock solutions were prepared in dimethyl sulfoxide (DMSO, Sigma-Aldrich, St. Louis, MO, cat. D2650) at 800-fold the tested concentration and stored at -70 degrees C prior to their use. All drugs and investigational agents were tested over a range starting from a high concentration at or near the clinical Cmax and decreasing in half-log increments. If the clinical Cmax for an agent had not been determined, the highest concentration tested was 10 microM.
Cell Culture. All cells were maintained in an incubator at 37 degrees C and 5% CO2 with 95% humidity. The PDC lines were cultured according to standard operating procedures established by the NCI PDMR. All PDCs were thawed and cultured in Matrigel-coated flasks prepared with a working solution of 1X Ham's F-12 nutrient mix, without supplementation (Invitrogen, Waltham, MA, cat. 11765054), 100 U/mL penicillin-streptomycin (Invitrogen, cat. 15140122), and 2.5% Matrigel (Corning Inc., Corning, NY, cat. 354248) for the first three passages. The 362531-283-R-J2-PDC and 782815-120-R-J1-PDC lines were cultured in 6C/Colon 1B media, which includes advanced DMEM/F-12 (Thermo Fisher Scientific, cat. 12634028), 10 mM HEPES (Thermo Fisher Scientific, cat. 15630080), 1X GlutaMAX supplement (Thermo Fisher Scientific, cat. 35050061), 0.1 mg/mL primocin (InvivoGen, San Diego, CA, cat. ant-pm-2), 10% defined fetal bovine serum, heat inactivated (HyClone Laboratories Inc., Logan, UT, cat. SH30070.03HI), 50% L-WRN conditioned media (ATCC, cat. CRL-3276), 1.25 mM N-Acetyl-L-cysteine (Sigma-Aldrich, cat. A9165), 10 mM nicotinamide (Sigma-Aldrich, cat. N0636), 1X B-27 supplement (Thermo Fisher Scientific, cat. 17504044), 1X N-2 supplement (Thermo Fisher Scientific, cat. 17502048), 50 ng/mL human EGF (Thermo Fisher Scientific, cat. PHG0311), and 10 microM Y-27632 dihydrochloride (Tocris Bioscience, cat. 1254). The K12877-001-R-J1-PDC line was cultured in 6I media, which includes all 6C/Colon 1B media plus 10 ng/mL human FGF-10 (PeproTech, cat. 100-26), 1 ng/mL human FGF-2 (PeproTech, cat. 100-18B), 1 µM prostaglandin E2 (Tocris Bioscience, cat. 2296), […] hydrocortisone (Sigma-Aldrich, cat. H4001), and […] bovine insulin (Sigma-Aldrich, cat. I6634). The K86415-001-R-J1-PDC line was cultured in 6D media, which includes all 6C/Colon 1B media components minus the L-WRN conditioned media. The 485176-168-R4-J1-PDC was cultured in PANC media, which includes all 6C/Colon 1B media plus 100 ng/mL human FGF-10 (PeproTech, cat. 100-26), 500 nM SB-431542 (Selleckchem, cat. S1067), and 10 nM gastrin (Tocris Bioscience, cat. 3006). […]
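Note: spheroids exposed to compound for seven days before viability readout.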

Structure (SMILES): CCC(CC)c1cc(NC2CCC(N)C2)n2nccc2n1 (stereo not drawn)
- viability, T/C (compound alone 0.1 µM): 106%, 99.3% [2024-05] and 95.6%, 126% [2024-06]
- viability, T/C (compound alone 0.316 µM): 70.3%, 78.8% [2024-05] and 95.7%, 66.4% [2024-06]

Structure (SMILES): C=CC(=O)Nc1cc(Nc2nccc(-c3cn(C)c4ccccc34)n2)c(OC)cc1N(C)CCN(C)C
- viability, T/C (compound alone 0.01 µM): 71.9%, 85.1% [2024-05] and 98.5%, 67.3% [2024-06]
- viability, T/C (compound alone 0.0316 µM): 107%, 103% [2024-05] and 81.6%, 83.5% [2024-06]
- viability, T/C (compound alone 0.1 µM): 109%, 99.4% [2024-05] and 88.8%, 80.5% [2024-06]

Structure (SMILES): C[C@@H](NC(=O)c1ncnc(N)c1Cl)c1ncc(C(=O)Nc2cc(C(F)(F)F)c(Cl)cn2)s1
- viability, T/C (compound alone 0.0316 µM): 91.7%, 106% [2024-05] and 74.7%, 85% [2024-06]
- viability, T/C (compound alone 3.16 µM): 29.9%, 36.5% [2024-05] and 56.3%, 45.2% [2024-06]

Structure (SMILES): CC(Nc1ccc2c(c1)OCCn1cc(N3C(=O)OCC3C(F)F)nc1-2)C(N)=O (stereo not drawn)
- IC50: 186 nM, 96.9 nM [2024-05] and 49.2 nM, 75.1 nM [2024-06]
- viability, T/C (compound alone 3.16 µM): 89.9%, 21.8% [2024-05] and 11.1%, 13.9% [2024-06]

Structure (SMILES): Cc1nc(N2CCC3(CC2)COC(C)C3N)c(CO)nc1Sc1ccnc(N)c1Cl (stereo not drawn)
- viability, T/C (compound alone 1 µM): 94.4%, 108% [2024-05] and 88.8%, 75.1% [2024-06]

Structure (SMILES): NC1c2ccccc2OC12CCN(c1cnc3c(N4CCCc5ncccc54)n[nH]c3n1)CC2 (stereo not drawn)
- viability, T/C (compound alone 0.1 µM): 78.9%, 85.9% [2024-05] and 98.7%, 64.9% [2024-06]
- viability, T/C (compound alone 0.316 µM): 108%, 105% [2024-05] and 99.5%, 73% [2024-06]
- viability, T/C (compound alone 1 µM): 97.5%, 86.8% [2024-05] and 55.4%, 83.8% [2024-06]

Structure (SMILES): CC(C)n1nc(-c2ccc3oc(N)nc3c2)c2c(N)ncnc21
- viability, T/C (compound alone 0.000316 µM): 97.7%, 104% [2024-05] and 95.5%, 72.7% [2024-06]
- viability, T/C (compound alone 0.001 µM): 56.2%, 73.4% [2024-05] and 83.6%, 57.8% [2024-06]

Structure (SMILES): CCn1c(-c2cc(N3CCN(C)CC3)cnc2C(C)OC)c2c3cc(ccc31)-c1csc(n1)CC(NC(=O)C1CC1C)C(=O)N1CCCC(N1)C(=O)OCC(C)(C)C2 (stereo not drawn)
- viability, T/C (compound alone 0.00949 µM): 102, 99.5, 84.5, 111, 108, 109, 92.9, 100%
- viability, T/C (compound alone 0.3 µM): 108, 114, 104, 130, 111 (2×), 116, 105%

Structure (SMILES): C#Cc1c(F)ccc2cc(O)cc(-c3ncc4c(N5CC6CCC(C5)N6)nc(OCC56CCCN5CC(F)C6)nc4c3F)c12 (stereo not drawn)
- viability, T/C (compound alone 0.1 µM): 95, 96.9, 89.9, 94.5, 87.3, 107, 96.1, 114%
- viability, T/C (compound alone 0.316 µM): 94, 97.5, 102, 91.5, 79.1, 88, 113, 101%
- viability, T/C (compound alone 1 µM): 90.9, 92.9, 105, 95.3, 112, 92.8, 102, 84.1%
- viability, T/C (compound alone 3.16 µM): 80.7, 86.4, 102, 93.9, 89.3, 71.8, 92.9, 90.9%

Structure (SMILES): CCn1c(-c2cccnc2C(C)OC)c2c3cc(ccc31)N1CCOC(CC(NC(=O)C(C(C)C)N(C)C(=O)C3(F)CCN(C(=O)C#CC(C)(C)N(C)C)CC3)C(=O)N3CCCC(N3)C(=O)OCC(C)(C)C2)C1 (stereo not drawn)
- viability, T/C (compound alone 0.000949 µM): 99.5, 115, 105, 93.6, 123, 107, 99, 110%
- viability, T/C (compound alone 0.00949 µM): 119 (2×), 118, 108, 88.3, 113, 124, 100%
- viability, T/C (compound alone 0.03 µM): 94.5, 113, 90.2, 109, 102, 103, 121, 92.6%
- viability, T/C (compound alone 0.0949 µM): 102, 111, 86, 99.5, 105, 116, 88.3, 96.4%
- viability, T/C (compound alone 0.3 µM): 113, 101, 90.1, 94.2, 105, 78, 108, 94.7%

Structure (SMILES): CC(C)NCC(C(=O)N1CCN(c2ncnc3c2C(C)CC3O)CC1)c1ccc(Cl)cc1 (stereo not drawn)
- viability, T/C (compound alone 0.0316 µM): 102%, 106% [2024-05] and 67.1%, 101% [2024-06]

Structure (SMILES): C=CC(=O)N1CCN(c2nc(OCC3CCCN3C)nc3c(F)c(-c4nc(N)cc(C)c4C(F)(F)F)c(Cl)cc23)C(C)C1 (stereo not drawn)
- viability, T/C (compound alone 0.00316 µM): 107%, 95.2% [2024-05] and 64.3, 88.9, 106 (2×), 81.7, 88.8, 68.7, 94.9, 96.5, 79.1% [2024-06]
- viability, T/C (compound alone 0.01 µM): 100%, 89.3% [2024-05] and 76.9, 100, 95.6, 88.5, 87.5, 76.4, 92, 89.8, 84.5, 107% [2024-06]
- viability, T/C (compound alone 0.0316 µM): 106%, 104% [2024-05] and 93.7 (2×), 99.3, 106, 99.5, 119 (2×), 110, 89.7, 92.1% [2024-06]

Structure (SMILES): CCN1CCN(Cc2ccc(Nc3ncc(F)c(-c4cc(F)c5nc(C)n(C(C)C)c5c4)n3)nc2)CC1
- IC50: 8.39 nM, 13.6 nM [2024-05] and 31.3 nM, 36.1 nM [2024-06]
- viability, T/C (compound alone 0.00316 µM): 77.4%, 95.8% [2024-05] and 84.3%, 61.5% [2024-06]
- viability, T/C (compound alone 0.0316 µM): 27.2%, 38.4% [2024-05] and 58.9%, 52.8% [2024-06]
